Experimental data taken from article PMC10530723, “The Conserved Chromatin Remodeler SMARCAD1 Interacts with TFIIIC and Architectural Proteins in Human and Mouse” (Genes, 2023).
Results are given in words; binding and its absence hold for the method and conditions named. In cells and extracts the contact can be indirect. Some binding calls cover weakened binding; strength is not graded here.

Legend:
[1] = biological target: T1, TFIIIC90 (endogenous, HeLa) (human (endogenous in HeLa)) (UniProt Q9UKN8); test: co-IP; endogenous proteins from HeLa nuclear extract (150 ug protein, 3 ug antibody to SMARCAD1, TFIIIC63 or TFIIIC90, Protein G Dynabeads); benzonase and ethidium bromide present throughout; washes in 20 mM HEPES pH 7.6, 100 mM KCl, 0.05% Triton X-100, last wash with additional 50 mM NaCl; Western blot
T1 sequence: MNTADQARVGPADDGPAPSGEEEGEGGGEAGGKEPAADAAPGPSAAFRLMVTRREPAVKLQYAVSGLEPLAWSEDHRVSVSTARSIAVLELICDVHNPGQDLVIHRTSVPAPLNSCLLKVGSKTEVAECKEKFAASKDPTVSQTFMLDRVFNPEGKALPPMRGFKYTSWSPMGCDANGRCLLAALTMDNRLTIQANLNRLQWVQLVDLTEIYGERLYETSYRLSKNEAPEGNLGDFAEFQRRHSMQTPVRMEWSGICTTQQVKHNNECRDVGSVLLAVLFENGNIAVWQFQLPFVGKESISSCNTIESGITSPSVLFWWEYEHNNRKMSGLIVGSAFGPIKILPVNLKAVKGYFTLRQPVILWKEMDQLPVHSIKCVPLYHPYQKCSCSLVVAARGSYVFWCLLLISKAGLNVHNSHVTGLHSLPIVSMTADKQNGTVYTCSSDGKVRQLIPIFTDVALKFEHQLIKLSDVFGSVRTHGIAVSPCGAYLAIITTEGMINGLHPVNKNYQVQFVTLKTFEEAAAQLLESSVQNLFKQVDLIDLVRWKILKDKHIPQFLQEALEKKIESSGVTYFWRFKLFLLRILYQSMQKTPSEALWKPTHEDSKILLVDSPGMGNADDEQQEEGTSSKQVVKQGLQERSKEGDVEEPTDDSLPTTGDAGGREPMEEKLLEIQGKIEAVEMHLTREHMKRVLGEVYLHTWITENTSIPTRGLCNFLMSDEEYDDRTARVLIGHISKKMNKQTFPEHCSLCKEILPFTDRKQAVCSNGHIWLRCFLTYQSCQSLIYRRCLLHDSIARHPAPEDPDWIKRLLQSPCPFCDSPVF

[2] = biological target: T2, TFIIIC63 (endogenous, HeLa) (human (endogenous in HeLa)) (UniProt Q9Y5Q8); test: as above
T2 sequence: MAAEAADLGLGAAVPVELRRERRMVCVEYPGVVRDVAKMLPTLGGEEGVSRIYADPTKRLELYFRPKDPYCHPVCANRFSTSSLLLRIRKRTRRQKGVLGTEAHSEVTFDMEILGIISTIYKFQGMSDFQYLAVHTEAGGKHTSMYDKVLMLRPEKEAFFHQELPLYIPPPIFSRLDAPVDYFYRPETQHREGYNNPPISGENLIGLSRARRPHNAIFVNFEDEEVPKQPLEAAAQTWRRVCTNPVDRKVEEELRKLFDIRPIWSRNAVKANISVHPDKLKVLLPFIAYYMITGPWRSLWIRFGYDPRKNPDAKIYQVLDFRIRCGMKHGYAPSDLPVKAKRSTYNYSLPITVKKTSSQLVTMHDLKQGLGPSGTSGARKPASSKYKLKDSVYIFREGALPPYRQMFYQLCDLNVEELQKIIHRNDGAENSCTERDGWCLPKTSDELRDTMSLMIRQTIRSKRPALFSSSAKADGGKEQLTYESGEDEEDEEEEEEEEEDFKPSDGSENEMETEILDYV

[3] = biological target: T3, TFIIIC63 (endogenous, mouse ESCs) (mouse (endogenous in 46C ESCs)) (UniProt Q8R2T8); test: co-IP; endogenous proteins from 46C mouse ESC nuclear extract (antibodies to SMARCAD1, TFIIIC63 or TFIIIC90); ethidium bromide and benzonase present; Western blot
T3 sequence: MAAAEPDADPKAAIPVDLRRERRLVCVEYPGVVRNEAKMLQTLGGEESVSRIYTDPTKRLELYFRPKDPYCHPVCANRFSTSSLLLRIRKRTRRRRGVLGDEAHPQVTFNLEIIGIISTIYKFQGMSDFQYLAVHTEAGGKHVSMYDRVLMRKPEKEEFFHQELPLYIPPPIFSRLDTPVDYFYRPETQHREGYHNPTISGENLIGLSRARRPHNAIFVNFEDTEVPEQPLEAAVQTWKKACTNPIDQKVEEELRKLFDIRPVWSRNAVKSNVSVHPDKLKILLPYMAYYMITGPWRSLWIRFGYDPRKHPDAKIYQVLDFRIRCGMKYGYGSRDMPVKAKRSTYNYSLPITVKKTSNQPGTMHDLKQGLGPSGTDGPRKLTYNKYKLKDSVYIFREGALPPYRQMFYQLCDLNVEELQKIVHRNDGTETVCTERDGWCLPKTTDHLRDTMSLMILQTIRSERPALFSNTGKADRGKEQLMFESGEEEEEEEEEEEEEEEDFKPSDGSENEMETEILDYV

[4] = biological target: T4, TFIIIC90 (endogenous, mouse ESCs) (mouse (endogenous in 46C ESCs)) (UniProt Q8BMQ2); test: as above
T4 sequence: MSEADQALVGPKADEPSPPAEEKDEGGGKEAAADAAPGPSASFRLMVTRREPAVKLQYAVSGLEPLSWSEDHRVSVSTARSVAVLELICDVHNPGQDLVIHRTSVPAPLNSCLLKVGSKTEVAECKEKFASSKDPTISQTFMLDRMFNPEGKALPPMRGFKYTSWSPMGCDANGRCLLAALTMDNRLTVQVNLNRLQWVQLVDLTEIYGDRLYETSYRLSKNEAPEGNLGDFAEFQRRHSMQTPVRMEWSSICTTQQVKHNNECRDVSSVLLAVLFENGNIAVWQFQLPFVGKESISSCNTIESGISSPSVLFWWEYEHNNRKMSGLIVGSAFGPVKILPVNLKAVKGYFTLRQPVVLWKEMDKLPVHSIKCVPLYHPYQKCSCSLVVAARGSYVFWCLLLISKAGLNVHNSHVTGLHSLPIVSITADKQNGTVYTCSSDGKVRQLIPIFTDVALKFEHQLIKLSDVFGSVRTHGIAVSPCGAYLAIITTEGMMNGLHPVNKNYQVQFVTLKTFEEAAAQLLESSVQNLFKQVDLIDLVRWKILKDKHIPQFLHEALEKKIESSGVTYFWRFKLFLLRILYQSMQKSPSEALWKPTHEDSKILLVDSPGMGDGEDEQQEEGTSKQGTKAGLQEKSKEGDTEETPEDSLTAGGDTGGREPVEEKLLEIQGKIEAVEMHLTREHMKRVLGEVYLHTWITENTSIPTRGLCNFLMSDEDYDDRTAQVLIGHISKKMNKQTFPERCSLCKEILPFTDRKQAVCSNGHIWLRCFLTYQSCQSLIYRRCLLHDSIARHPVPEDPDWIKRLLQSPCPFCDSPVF

[5] = biological target: T5, TFIIIC90 (endogenous, HeLa) (human (endogenous in HeLa)), Q9UKN8; test: co-IP; endogenous proteins from HeLa nuclear extract (150 ug protein, 3 ug antibody to SMARCAD1, TFIIIC63 or TFIIIC90, Protein G Dynabeads); benzonase and ethidium bromide present throughout; washes in 20 mM HEPES pH 7.6, 100 mM KCl, 0.05% Triton X-100, last wash with additional 50 mM NaCl; Western blot; details: remark: other sources report otherwise
T5 chain: T1 sequence

B1: SMARCAD1 (endogenous, HeLa) (protein, UniProt Q9H4L7 1-1026)
chain: MNLFNLDRFRFEKRNKIEEAPEATPQPSQPGPSSPISLSAEEENAEGEVSRANTPDSDITEKTEDSSVPETPDNERKASISYFKNQRGIQYIDLSSDSEDVVSPNCSNTVQEKTFNKDTVIIVSEPSEDEESQGLPTMARRNDDISELEDLSELEDLKDAKLQTLKELFPQRSDNDLLKLIESTSTMDGAIAAALLMFGDAGGGPRKRKLSSSSEPYEEDEFNDDQSIKKTRLDHGEESNESAESSSNWEKQESIVLKLQKEFPNFDKQELREVLKEHEWMYTEALESLKVFAEDQDMQYVSQSEVPNGKEVSSRSQNYPKNATKTKLKQKFSMKAQNGFNKKRKKNVFNPKRVVEDSEYDSGSDVGSSLDEDYSSGEEVMEDGYKGKILHFLQDASIGELTLIPQCSQKKAQKITELRPFNSWEALFTKMSKTNGLSEDLIWHCKTLIQERDVVIRLMNKCEDISNKLTKQVTMLTGNGGGWNIEQPSILNQSLSLKPYQKVGLNWLALVHKHGLNGILADEMGLGKTIQAIAFLAYLYQEGNNGPHLIVVPASTIDNWLREVNLWCPTLKVLCYYGSQEERKQIRFNIHSRYEDYNVIVTTYNCAISSSDDRSLFRRLKLNYAIFDEGHMLKNMGSIRYQHLMTINANNRLLLTGTPVQNNLLELMSLLNFVMPHMFSSSTSEIRRMFSSKTKSADEQSIYEKERIAHAKQIIKPFILRRVKEEVLKQLPPKKDRIELCAMSEKQEQLYLGLFNRLKKSINNLEKNTEMCNVMMQLRKMANHPLLHRQYYTAEKLKEMSQLMLKEPTHCEANPDLIFEDMEVMTDFELHVLCKQYRHINNFQLDMDLILDSGKFRVLGCILSELKQKGDRVVLFSQFTMMLDILEVLLKHHQHRYLRLDGKTQISERIHLIDEFNTDMDIFVFLLSTKAGGLGINLTSANVVILHDIDCNPYNDKQAEDRCHRVGQTKEVLVIKLISQGTIEESMLKINQQKLKLEQDMTTVDEGDEGSMPADIATLLKTSMGL
- binding [1]: binds
- binding [2]: binds

B2: SMARCAD1 (endogenous, mouse ESCs) (protein, UniProt Q04692 1-1021)
chain: MNLFNLDRFRFEKRSKIEEAPEAAPQPSQARPSSPISLSAEEENAEGEGSRANTPDSDVTEKTEDSSVPEPPDNERKASLSCFQNQRAIQEYIDLSSDTEDVSPNCSSTVQEKKFSKDTVIIVSEPSEDEESHDLPSVTRRNDSSELEDLSELEDLKDAKLQTLKELFPQRSDSDLLKLIESTSTMDGAIAAALLMFGDAGGGPRKRKLSSSSEEDDVNDDQSVKQPRGDRGEESNESAEASSNWEKQESIVLKLQKEFPNFDKQELREVLKEHEWMYTEALESLKVFAEDQDVQCASQSEVTNGKEVARNQNYSKNATKIKMKQKISVKPQNGFNKKRKKNVFNPKKAVEDSEYDSGSDAGSSLDEDYSSCEEVMEDGYKGKILHFLQVSSIAELTLIPKCSQKKAQKITELRPFNNWEALFTKMSKINGLSEDLIWNCKTVIQERDVVIRLMNKCEDISNKLTKQVTMLTGNGGGWNREQPSLLNQSLSLKPYQKVGLNWLALVHKHGLNGILADEMGLGKTIQAIAFLAYLFQEGNKGPHLIVVPASTIDNWLREVNLWCPSLNVLCYYGSQEERKQIRFNIHNKYEDYNVIVTTYNCAISSSDDRSLFRRLKLNYAIFDEGHMLKNMGSIRYQHLMTINARNRLLLTGTPVQNNLLELMSLLNFVMPHMFSSSTSEIRRMFSSKTKPADEQSIYEKERIAHAKQIIKPFILRRVKEEVLKLLPPKKDRIELCAMSEKQEQLYSGLFNRLKKSINNLEKNTEMCNVMMQLRKMANHPLLHRQYYTPEKLKEMSQLMLKEPTHCEANPDLIFEDMEVMTDFELHVLCKQYQHINSYQLDMDLILDSGKFRALGCILSELKQKGDRVVLFSQFTMMLDILEVLLKHHQHRYLRLDGKTQISERIHLIDEFNTDMDIFVFLLSTKAGGLGINLTSANVVILHDIDCNPYNDKQAEDRCHRVGQTKEVLVIKLISQGTIEESMLKINQQKLKLEQDMTTVDEADEGSMPADIATLLKTSMGL
- binding [3]: binds
- binding [4]: binds

B3: TFIIIC110 (endogenous, HeLa), Q8WUA4 1-911 (protein)
chain: MDTCGVGYVALGEAGPVGNMTVVDSPGQEVLNQLDVKTSSEMTSAEASVEMSLPTPLPGFEDSPDQRRLPPEQESLSRLEQPDLSSEMSKVSKPRASKPGRKRGGRTRKGPKRPQQPNPPSAPLVPGLLDQSNPLSTPMPKKRGRKSKAELLLLKLSKDLDRPESQSPKRPPEDFETPSGERPRRRAAQVALLYLQELAEELSTALPAPVSCPEGPKVSSPTKPKKIRQPAACPGGEEVDGAPRDEDFFLQVEAEDVEESEGPSESSSEPEPVVPRSTPRGSTSGKQKPHCRGMAPNGLPNHIMAPVWKCLHLTKDFREQKHSYWEFAEWIPLAWKWHLLSELEAAPYLPQEEKSPLFSVQREGLPEDGTLYRINRFSSITAHPERWDVSFFTGGPLWALDWCPVPEGAGASQYVALFSSPDMNETHPLSQLHSGPGLLQLWGLGTLQQESCPGNRAHFVYGIACDNGCIWDLKFCPSGAWELPGTPRKAPLLPRLGLLALACSDGKVLLFSLPHPEALLAQQPPDAVKPAIYKVQCVATLQVGSMQATDPSECGQCLSLAWMPTRPHQHLAAGYYNGMVVFWNLPTNSPLQRIRLSDGSLKLYPFQCFLAHDQAVRTLQWCKANSHFLVSAGSDRKIKFWDLRRPYEPINSIKRFLSTELAWLLPYNGVTVAQDNCYASYGLCGIHYIDAGYLGFKAYFTAPRKGTVWSLSGSDWLGTIAAGDISGELIAAILPDMALNPINVKRPVERRFPIYKADLIPYQDSPEGPDHSSASSGVPNPPKARTYTETVNHHYLLFQDTDLGSFHDLLRREPMLRMQEGEGHSQLCLDRLQLEAIHKVRFSPNLDSYGWLVSGGQSGLVRIHFVRGLASPLGHRMQLESRAHFNAMFQPSSPTRRPGFSPTSHRLLPTP
- binding [5]: no binding
